Measurements taken from publication PMC4336329 (PLoS ONE, 2015).
In all, about 310,000 compounds went through this assay and about 14,000 (4.5%) showed an effect of 50% or more. The effect is printed as a negative number. The list shows a part of the results.

Target: human ether-à-go-go-related gene (hERG) potassium channel (human, UniProt Q12809)
Assay: primary screen, population patch clamp on CHO cells stably expressing hERG
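Also: peak tail current of the secondary pulse compared with the same well before compound.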

Sequence of human ether-à-go-go-related gene (hERG) potassium channel (Q12809 whole entry, looked up): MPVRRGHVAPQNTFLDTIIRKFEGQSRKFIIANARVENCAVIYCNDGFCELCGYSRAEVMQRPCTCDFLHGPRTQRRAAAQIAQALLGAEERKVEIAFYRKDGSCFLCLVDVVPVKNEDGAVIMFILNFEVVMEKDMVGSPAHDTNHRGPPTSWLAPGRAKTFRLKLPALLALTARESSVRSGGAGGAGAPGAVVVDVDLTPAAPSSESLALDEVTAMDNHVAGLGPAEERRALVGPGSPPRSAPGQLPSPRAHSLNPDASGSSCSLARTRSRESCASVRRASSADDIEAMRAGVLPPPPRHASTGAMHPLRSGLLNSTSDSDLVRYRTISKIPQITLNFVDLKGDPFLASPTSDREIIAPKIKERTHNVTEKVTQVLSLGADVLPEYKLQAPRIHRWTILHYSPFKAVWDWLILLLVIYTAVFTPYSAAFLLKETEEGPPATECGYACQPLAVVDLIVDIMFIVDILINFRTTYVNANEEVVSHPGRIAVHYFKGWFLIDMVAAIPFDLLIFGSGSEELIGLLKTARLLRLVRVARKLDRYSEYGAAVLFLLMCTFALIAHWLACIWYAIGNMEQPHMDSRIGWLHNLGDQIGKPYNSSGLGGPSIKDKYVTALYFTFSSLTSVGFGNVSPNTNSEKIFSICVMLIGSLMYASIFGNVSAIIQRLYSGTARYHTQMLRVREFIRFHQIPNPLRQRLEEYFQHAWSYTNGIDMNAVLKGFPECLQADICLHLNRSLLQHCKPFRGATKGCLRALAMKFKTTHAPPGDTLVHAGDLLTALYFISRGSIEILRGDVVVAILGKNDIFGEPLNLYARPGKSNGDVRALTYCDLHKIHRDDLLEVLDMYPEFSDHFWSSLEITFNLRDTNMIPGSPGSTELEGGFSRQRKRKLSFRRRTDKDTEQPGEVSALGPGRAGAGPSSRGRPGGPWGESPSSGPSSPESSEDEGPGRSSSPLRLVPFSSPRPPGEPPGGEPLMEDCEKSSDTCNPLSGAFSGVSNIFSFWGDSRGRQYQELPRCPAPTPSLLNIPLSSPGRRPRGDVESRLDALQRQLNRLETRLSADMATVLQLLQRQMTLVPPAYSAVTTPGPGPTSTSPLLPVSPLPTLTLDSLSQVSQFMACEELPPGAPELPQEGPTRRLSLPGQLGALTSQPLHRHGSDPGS

Row | SMILES | hERG current change (%, negative = inhibition) at 10uM
1 | CSc1ncccc1C(=O)OCC(=O)N1CC(=O)Nc2ccccc21 | 8.21%
2 | C=CCNC(=O)c1ccccc1NC(=O)Cc1ccccc1[N+](=O)[O-] | -9.54%
3 | COCCCn1cnc2c(c1=O)c1nc3ccccc3nc1n2-c1ccc(C)cc1 | -37%
4 | Nc1nonc1-n1nnc(C(=O)N/N=C/c2ccccc2O)c1CN1CCCC1 | -13.3%
5 | CC(NC(=O)c1cc(-c2ccccc2)nc2ccccc12)C1CCCO1 (centres unmarked) | -11%
6 | CC(=O)N1N=C(c2ccc3ccccc3c2)OC12CCCC2 | 2.54%
7 | CCOC(=O)c1c(C)[nH]c(C(=O)CSc2nnc(C3CC3)n2N)c1C | 4.75%
8 | CCN(CC)C(=O)c1ccccc1NS(C)(=O)=O | 26.3%
9 | CC(=O)Nc1nc(C)c(-c2csc([NH2+]c3ccc(S(N)(=O)=O)cc3)n2)s1.[Br-] | 4.21%
10 | COc1ccccc1N=Nc1c(O)[nH]c(=S)[nH]c1=O | 20.6%
11 | O=C1c2nc3ccccn3c2C(=O)N1Cc1ccccc1 | 7.96%
12 | O=C(CSc1n[nH]c(=O)[nH]c1=O)Nc1ccccc1C(=O)c1ccccc1 | 5.14%
13 | Cc1cc(C)c(NC(=O)C(C)(C)C)c(Cl)c1 | -4.35%
14 | Cc1ccc(C(=O)NCCCNC(=O)c2ccccc2F)cn1 | 16.9%
15 | Cc1ccccc1-n1cc(CNCc2c(C(=O)N(C)C)nc3ccc(Cl)cn23)cn1 | -7.4%
16 | CN(Cc1nccn1C)C(=O)C1CCC(=O)N(Cc2cccc(C(F)(F)F)c2)C1 (centres unmarked) | -9.93%
17 | Cc1cc2c(C)nc(N/N=C/c3ccc([N+](=O)[O-])cc3)nc2o1 | -16.2%
18 | CC1(C2CC2)NC(=O)N(CC(=O)Nc2cc(S(=O)(=O)N3CCCCC3)ccc2Cl)C1=O (centres unmarked) | -11.4%
19 | CN(CC(=O)Nc1c(Cl)cccc1Cl)C(=O)CCNS(=O)(=O)c1ccccc1C(F)(F)F | -4.21%
20 | CCOc1ccccc1-n1nnnc1SCC(=O)Nc1cc(C)on1 | -16.2%
21 | C=CCNC(=O)/C(=C\c1ccc(OC)cc1)NC(=O)c1ccc([N+](=O)[O-])cc1 | -77.1%
22 | O=C(NCc1nnc(SCc2ccccc2)n1-c1ccccc1)C12CC3CC(CC(C3)C1)C2 | -34.3%

Row | SMILES | hERG current change (%, negative = inhibition) at 10uM
23 | CC(C)c1ccc(C(=O)CSc2ncn[nH]2)cc1 | 8.04%
24 | COc1ccc(CCNC(=O)COC(=O)c2cc(S(=O)(=O)NCc3ccccc3)ccc2O)cc1OC | -1.06%
25 | COc1ccc(NC(=O)COc2coc(CN3c4ccccc4CC3C)cc2=O)cc1 (centres unmarked) | 5.06%
26 | CCc1ccc(NC(=O)CSc2nnc(-c3cnccn3)n2C)cc1 | -21.2%
27 | Cc1ncc([N+](=O)[O-])n1CC(=O)NC1CCCCCC1 | 15.7%
28 | C/C(Cn1nnc2ccccc21)=N/OC(=O)c1c(F)cccc1F | 12.5%
29 | CCOc1c2ccc(C(=O)NCc3cc(C(F)(F)F)cc(C(F)(F)F)c3)cc2nn1C | -5.13%
30 | CN(CC1CCOCC1)C(=O)CC1C(=O)NCCN1CC(c1ccccc1)c1ccccc1 (centres unmarked) | -0.796%
31 | Cc1cccc(Cn2cc(SCC(=O)Nc3nccs3)c3ccccc32)c1 | -0.134%
32 | O=C(O)COc1ccc(S(=O)(=O)N2CCCC2)cc1 | 19.5%
33 | O=S1(=O)CCC(=Nc2ccc(Cl)cc2)c2ccsc21 | 12.4%
34 | Cc1cc2cc(CNC(=S)Nc3ccc(OC(F)F)cc3)ccc2[nH]1 | -4.07%
35 | Cc1cc(C)nc(SCCn2c(N3CCCCC3)nc3c2c(=O)n(C)c(=O)n3C)n1 | -4.05%
36 | COc1cc(C(=O)NNC(=O)c2ccoc2C)cc(OC)c1OC | 18.1%
37 | O=C(Oc1ccc(Br)cc1C(=O)/C=C/c1ccccc1F)c1ccco1 | 7.3%
38 | COc1cccc(NC(=O)COC(=O)c2ccc(C)c(S(=O)(=O)N3CCCCC3)c2)c1 | 2.07%
39 | CCOC(=O)c1ccccc1NC(=O)c1nc2nccc(C)n2n1 | -19.8%
40 | Cc1ccc(O)c(-c2[nH]ncc2C(=O)c2ccc(Cl)cc2)c1 | 21.5%
41 | COc1ccc(CC(=O)N(C)Cc2cccc(F)c2)cc1S(=O)(=O)N1CCOCC1 | -16.9%
42 | O=C1COc2ccc(C(=O)CSc3nnnn3-c3ccccc3)cc2N1 | -10.4%
43 | CCn1cc(C(=O)O)c(=O)c2cnc(N3CCN(C(=S)NC(=O)c4ccc(Br)cc4)CC3)nc21 | -4.77%
44 | Cc1cccc(N2CCN(S(=O)(=O)c3ccc4c(c3)C(C)(C)C(=O)N4C)CC2)c1C | 5.06%

Row | SMILES | hERG current change (%, negative = inhibition) at 10uM
45 | Oc1ccc(/C=N/Nc2cc(N3CCCC3)nc(N3CCCC3)n2)cc1 | 1.56%
46 | COc1ccc(C(=O)O/N=C(\N)c2ccccn2)cc1[N+](=O)[O-] | 4.09%
47 | Nc1ccc(S(=O)(=O)N2CCCCC2c2cccnc2)cc1 (centres unmarked) | -6.2%
48 | COc1ccc(-c2ccc(NCCN3CCOCC3)nn2)cc1OC | 12.2%
49 | COc1ccccc1N(C1=NCCCS1)S(=O)(=O)c1ccc(C(C)(C)C)cc1 | -0.345%
50 | CCOc1ccc(CNC(=O)c2cc3oc4ccccc4c3n2C)cc1 | 17.8%
51 | COc1ccc(CC(=O)Nc2c3c(nn2-c2cccc(C)c2C)CS(=O)(=O)C3)cc1 | -24.5%
52 | O=C(O)c1ccc2noc(-c3ccccc3)c2c1 | 13.2%
53 | CSc1ncc(Cl)c(C(=O)Nc2c(C)cccc2C)n1 | 28.5%
54 | CCOc1ccc(OCCC(=O)NNC(=O)c2ccncc2)cc1 | -19.6%
55 | CCCC(C(=O)NC1CCCCC1)N(CC1CCCO1)C(=O)CNS(=O)(=O)c1ccc(F)cc1 (centres unmarked) | -21.1%
56 | Cc1nc(-c2ccc([N+](=O)[O-])cc2)sc1C(=O)O | 10.3%
57 | O=C(Nc1cccc(NC(=O)c2ccccc2[N+](=O)[O-])n1)c1ccccc1[N+](=O)[O-] | 9.48%
58 | Cc1ccc(C(=O)Nc2nccc(C)n2)cc1 | 16.2%
59 | CCOC(=O)/C=C/C(=O)Nc1ccc(S(=O)(=O)Nc2c(C)cc(C)cc2C)cc1 | 7.22%
60 | COc1ccc(-c2cc(C(=O)N3CCCCCC3)c3ccccc3n2)c(OC)c1 | -18.6%
61 | Cc1ccc(S(=O)(=O)n2nc(OC(=O)c3c(F)cccc3Cl)cc2N)cc1 | -26.7%
62 | CC(C)C1=NOC(C(=O)N2CCC(N3CCC(C(=O)N4CCOCC4)CC3)CC2)C1 (centres unmarked) | 14.4%
63 | Cc1nnc(C)n1/N=C/c1cccn1C | 3.31%
64 | CCOc1ccc(-c2c(=O)n(OCc3ccc([N+](=O)[O-])cc3)c3ccccc3[n+]2[O-])cc1 | -14.2%
65 | Cc1ccc2nc3c(cc2c1)c(C)nn3-c1ccccc1 | 16%
66 | O=C(NCc1ccco1)/C(=C\c1ccco1)NC(=O)c1ccco1 | 2.27%

Row | SMILES | hERG current change (%, negative = inhibition) at 10uM
67 | NC(=O)c1nsc(C(=O)N(c2ccccc2)C(C(=O)NCc2ccc(F)cc2)c2ccc(O)cc2)c1N (centres unmarked) | 1.07%
68 | COc1cccc(-c2cc(C(=O)Nc3c(C)nn(Cc4ccccc4)c3C)no2)c1 | 6.3%
69 | COc1ccc(N2CC(C(=O)N[C@@H](C)C(=O)NCc3ccccc3OC)CC2=O)cc1 (some centres unmarked) | 11.1%
70 | O=C(NCC1CCCO1)c1ccc(Oc2ccc([N+](=O)[O-])cc2)cc1 (centres unmarked) | -60.8%
71 | Cc1ccc(Br)cc1S(=O)(=O)N1CCN(c2ccccc2)CC1 | -3.42%
72 | Cc1ccccc1CC(=O)NC1CCCc2ccccc21 (centres unmarked) | 24.8%
73 | CN(C)c1ccc(/C=N/NC(=O)c2ccnn2C)cc1 | 0.696%
74 | CCN(Cc1ccccc1)C(=O)Cn1c(=O)n(CC(=O)N2CCCCC2)c(=O)c2sccc21 | 7.16%
75 | Fc1cc2[nH]cnc2cc1Cl | 9.69%
76 | N#CC1=C(N)Nc2ncnn2C1c1ccccc1 (centres unmarked) | 10.6%
77 | O=C(Nc1cc(Cl)ccc1N1CCOCC1)c1cnccn1 | 1.99%
78 | CNC(=O)COc1coc(CN2CCN(c3ccccc3OC)CC2)cc1=O | 13.6%
79 | COCCn1c(SCC(=O)Nc2ccc(OC)c(S(N)(=O)=O)c2)nc2ccccc21 | 2.06%
80 | CN1CCN(C(=S)c2ccc(OCC(=O)Nc3cccc(C(F)(F)F)c3)cc2)CC1 | -11.2%
81 | CCn1nc(C(=O)N[C@@H](CCSC)c2nc3ccccc3[nH]2)c2ccccc2c1=O | -42.3%
82 | Cc1cnc(NC(=O)c2cc3c(C)nn(-c4ccccc4)c3s2)s1 | 9.03%
83 | Fc1ccc(CSc2nnc3ccccn23)c(Cl)c1 | 14.1%
84 | CCN(C1CCS(=O)(=O)C1)S(=O)(=O)c1ccc(OC)c(OC)c1 (centres unmarked) | -9.93%
85 | O=C1OCCN1S(=O)(=O)Nc1ccccc1 | 12.8%
86 | COc1ccc(CCN(C)Cc2c(O)ccc3cc(Br)ccc23)cc1OC | -59.5%
